Patent US20100104509A1, “HUMAN ANTIBODIES THAT BIND CD19 AND USES THEREOF” (Medarex, Inc., priority 2006, published 2010)
“Also recorded” adds a separate entry of the source.

Key:
human CD19 = test: ELISA binding to CD19-Fc fusion protein; settings: CD19-Fc fusion protein coated at 1.0 μg/ml
CHO-CD19 cell line = target: T1, CHO-CD19 cell line (Homo sapiens, UniProt P15391); test: Flow cytometry binding to CD19-transfected CHO cells
T1 construct: an expression plasmid containing the full length cDNA encoding the transmembrane form of CD19; expressed in transfected cells; host or cells: CHO cells
T1 sequence (P15391 20-556): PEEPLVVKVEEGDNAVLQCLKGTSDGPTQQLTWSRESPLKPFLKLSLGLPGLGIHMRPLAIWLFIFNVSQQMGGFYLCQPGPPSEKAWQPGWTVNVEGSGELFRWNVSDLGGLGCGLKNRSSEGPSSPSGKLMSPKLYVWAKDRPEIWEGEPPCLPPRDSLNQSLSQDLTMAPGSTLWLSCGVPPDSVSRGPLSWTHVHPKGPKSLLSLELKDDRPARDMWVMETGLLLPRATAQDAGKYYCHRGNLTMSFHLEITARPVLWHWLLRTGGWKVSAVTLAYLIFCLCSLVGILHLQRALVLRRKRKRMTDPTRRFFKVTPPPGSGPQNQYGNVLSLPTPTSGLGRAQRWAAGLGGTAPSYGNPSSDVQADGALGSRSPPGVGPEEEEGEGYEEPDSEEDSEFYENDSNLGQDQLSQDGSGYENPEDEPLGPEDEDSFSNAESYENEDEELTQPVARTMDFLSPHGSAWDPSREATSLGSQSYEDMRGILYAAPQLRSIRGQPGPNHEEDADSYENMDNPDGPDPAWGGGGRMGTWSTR

Raji B cell line = target: T2, Raji B cell line (Homo sapiens, UniProt P15391); test: Flow cytometry binding to Raji cells
T2 construct: the CD19 protein is expressed on the surface of tumor cell lines of B cell origin; host or cells: Raji (human Burkitt's lymphoma B cell line)
T2 sequence (P15391 20-556): T1 sequence (P15391 20-556)
Experimental: Binding of the CD19 HuMAbs by flow cytometry to the B cell tumor lines Raji and Daudi, or to a CHO-CD19 transfected cell line was assessed. CHO cells were transfected with an expression plasmid containing the full length cDNA encoding the transmembrane form of CD19. […] A known murine anti-CD19 antibody was used as a positive control. The cells were washed and detected by either a phycoerythrin-labeled anti-human or anti-mouse secondary antibody and analyzed by flow cytometry. The results for binding to the CHO-CD19 cell line, Daudi B cell line, Raji B cell line and an expanded binding set against the Raji B cell line are shown in FIGS. 25A, 25B, 25C and 25D, respectively. […] All results are shown as measured by the geometric mean fluorescent intensity (GMFI) of staining.

Daudi B cell line = target: T3, Daudi B cell line (Homo sapiens, UniProt P15391); test: Flow cytometry binding to Daudi cells; settings: Daudi B tumor cell line
T3 construct: the CD19 protein is expressed on the surface of tumor cell lines of B cell origin; endogenous in cells; host or cells: Daudi B tumor cell line
T3 sequence (P15391 20-556): T1 sequence (P15391 20-556)

CHO-CD19 cells = test: Hum-Zap internalization assay (3H-thymidine); format: cell-based; settings: antibody from 30 nM 1:3 dilutions, Hum-Zap 11 nM, 48 hours
Raji B tumor cells = target: T4, Raji B tumor cells (Homo sapiens, UniProt P15391); test: Hum-Zap internalization assay (3H-thymidine); format: cell-based; settings: antibody from 30 nM 1:3 dilutions, Hum-Zap 11 nM, 48 hours
T4 construct: the CD19 protein is expressed on the surface of tumor cell lines of B cell origin; host or cells: Raji (human Burkitt's lymphoma B cell line)
T4 sequence (P15391 20-556): T1 sequence (P15391 20-556)

[1] = Differential scanning calorimetry; format: physicochemical; settings: 2.3 μM in PBS pH 7.4, 30 to 95° C. at 1° C./min
Experimental: The thermal stability of the anti-CD19 monoclonal antibodies were compared using calorimetric analysis of their melting temperatures.
Calorimetric measurements of melting Temperatures™ were carried out on a VP-Capillary DSC differential scanning microcalorimeter platform that is combined with an autosampler (MicroCal LLC, Northampton, Mass., USA). Sample cell volume is 0.144 mL. Denaturation data on the glycosylated and deglycosylated forms of the antibodies was obtained by heating the samples, at a concentration of 2.3 μM, from 30 to 95° C. at a rate of 1° C./min. The protein samples were present in phosphate-buffered saline (PBS) at pH 7.4. The same buffer was used in the reference cell to obtain the molar heat capacity by comparison. The observed thermograms were baseline corrected and normalized data analyzed based on a 2-state model, using the software Origin v7.0.

[2] = Chemical denaturation by fluorescence spectroscopy; format: physicochemical; settings: guanidinium hydrochloride in PBS, 24 hours, 2 μM antibody
Experimental: The stability of anti-CD19 monoclonal antibodies were compared by measuring the midpoint of chemical denaturation by fluorescence spectroscopy.
Fluorescence measurements of chemical denaturation were performed on a SPEX Fluorolog 3.22 with a Micromax plate reader (SPEX, Edison, N.J.). The measurements were performed on antibody samples that had been left for 24 hours to equilibrate in 16 different concentrations of guanidinium hydrochloride in PBS buffer. The measurements were made in black, low volume, non-binding surface 384-well plates (Corning, Acton, Mass.) and required 2 μM of antibody in a well volume of 12 μL Fluorescence was excited at 280 nm and the emission spectra were measured between 300 and 400 nm. The scan speed was 1 second per nm and slits were set to 5 nm bandpass. A buffer blank was performed using PBS and automatically subtracted from the data.

B1: 47G4: human monoclonal anti-CD19 antibody, VH SEQ ID NO: 2 and VL SEQ ID NO: 10 (antibody, listed as Homo sapiens, V domains shown)
VH: QVQLVQSGAEVKKPGSSVKVSCKDSGGTFSSYAISWVRQAPGQGLEWMGGIIPIFGTTNYAQQFQGRVTITADESTSTAYMELSSLRSEDTAVYYCAREAVAADWLDPWGQGTLVTVSS
VL: [about 100 residues not printed]FGPGTKVDIK
Human CD19
  binding to human CD19 by ELISA: specifically binds to human CD19; also recorded: specifically bound to the human CD19 peptide
CHO-CD19 cell line
  binding by flow cytometry (GMFI): bound to the CHO-CD19 cell line
Raji B cell line
  binding by flow cytometry (GMFI): bound to the Raji B cell line
Daudi B cell line
  binding by flow cytometry (GMFI): shown to bind the Daudi B tumor cell line
CHO-CD19 cells
  3H-thymidine incorporation (internalization with Hum-Zap): antibody concentration dependent decrease
Raji B tumor cells
  3H-thymidine incorporation (internalization with Hum-Zap): antibody concentration dependent decrease
[1]
  Thermo Stability Tm1: 67.2 °C
[2]
  Unfolding Midpoint: 1.68 M
